In publication PMC6363091:
No constants are given. Whether binding was seen depends on the method and setting. For some assays here: In cells and extracts the contact can be indirect. Some entries that bind do so weakly or less than the wild type. For some assays here: Tags and fused reporters may be left off the sequences shown.

Sequences of proteins named here, by UniProt entry; tags and fusion partners are left off.
UniProt Q9SV55: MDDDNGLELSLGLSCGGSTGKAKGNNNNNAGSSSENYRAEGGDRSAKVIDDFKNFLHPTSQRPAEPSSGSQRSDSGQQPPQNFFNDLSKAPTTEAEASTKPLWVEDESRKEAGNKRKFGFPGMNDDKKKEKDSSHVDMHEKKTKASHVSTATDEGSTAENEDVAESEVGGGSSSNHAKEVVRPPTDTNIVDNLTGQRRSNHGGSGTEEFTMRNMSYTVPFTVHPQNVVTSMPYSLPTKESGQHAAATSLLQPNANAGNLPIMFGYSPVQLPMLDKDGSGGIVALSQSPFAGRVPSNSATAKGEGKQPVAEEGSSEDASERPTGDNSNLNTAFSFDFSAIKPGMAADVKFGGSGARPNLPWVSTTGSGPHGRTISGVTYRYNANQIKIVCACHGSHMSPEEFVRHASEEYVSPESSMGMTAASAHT

How the values were obtained:
[1] = molecular target: NINJA fused to the C-terminus of YFP (Arabidopsis thaliana) (UniProt Q9SV55); test: split reporter; BiFC with split YFP in N. benthamiana leaves, Agrobacterium strains mixed 1:1 (OD600 0.4 each) with a nuclear marker; confocal imaging two days later
[2] = molecular target: NINJA–GFP (Arabidopsis thaliana) (UniProt Q9SV55); test: co-IP; Arabidopsis protoplasts co-transfected with GFP fusions and ERF19-HA3; total proteins immunoprecipitated with anti-GFP, blotted with anti-GFP and anti-HA
[3] = molecular target: NINJA fused to the binding domain (BD) of GAL4 (Arabidopsis thaliana) (UniProt Q9SV55); test: two-hybrid; yeast AH109, ERF19 in pGADT7 (AD), partners in pGBKT7 (BD); growth and blue staining on SD -L-W-H with X-α-Gal, 30 °C, 3 d
[4] = molecular target: T1, HDA6 fused to the binding domain (BD) of GAL4 (Arabidopsis thaliana) (UniProt Q9FML2); test: as above
T1 sequence: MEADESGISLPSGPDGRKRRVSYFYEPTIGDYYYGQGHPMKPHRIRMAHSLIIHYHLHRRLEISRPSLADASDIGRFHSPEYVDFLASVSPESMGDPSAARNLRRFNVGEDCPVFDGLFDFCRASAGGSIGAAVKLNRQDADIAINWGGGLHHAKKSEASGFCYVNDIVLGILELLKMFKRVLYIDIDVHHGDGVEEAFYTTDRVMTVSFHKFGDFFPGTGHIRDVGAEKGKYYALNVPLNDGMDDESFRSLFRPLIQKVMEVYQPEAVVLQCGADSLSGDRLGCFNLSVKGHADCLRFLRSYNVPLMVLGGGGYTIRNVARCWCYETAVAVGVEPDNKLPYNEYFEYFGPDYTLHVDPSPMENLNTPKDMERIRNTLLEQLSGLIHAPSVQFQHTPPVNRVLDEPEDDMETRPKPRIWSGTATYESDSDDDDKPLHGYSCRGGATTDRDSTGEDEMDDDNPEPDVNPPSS

[5] = molecular target: T2, HDA19 fused to the binding domain (BD) of GAL4 (Arabidopsis thaliana) (UniProt O22446); test: as above
T2 sequence: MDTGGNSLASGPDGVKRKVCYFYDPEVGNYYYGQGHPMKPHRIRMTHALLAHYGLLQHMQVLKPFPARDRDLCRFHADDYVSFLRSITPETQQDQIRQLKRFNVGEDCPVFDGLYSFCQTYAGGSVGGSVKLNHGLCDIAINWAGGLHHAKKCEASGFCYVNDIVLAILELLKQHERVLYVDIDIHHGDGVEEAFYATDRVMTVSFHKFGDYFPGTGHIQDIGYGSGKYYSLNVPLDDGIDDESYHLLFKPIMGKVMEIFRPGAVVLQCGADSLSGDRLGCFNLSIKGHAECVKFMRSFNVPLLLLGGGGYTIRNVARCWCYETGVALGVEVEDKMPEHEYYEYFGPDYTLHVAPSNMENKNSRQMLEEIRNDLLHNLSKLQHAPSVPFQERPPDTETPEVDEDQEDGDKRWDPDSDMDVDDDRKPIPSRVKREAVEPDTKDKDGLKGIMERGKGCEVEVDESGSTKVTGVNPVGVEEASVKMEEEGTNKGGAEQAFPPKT

B1: ERF19–nYFP (protein, UniProt O80542 1-144)
chain: MDYRESTGESQSKYKGIRRRKWGKWVSEIRVPGTRDRLWLGSFSTAEGAAVAHDVAFFCLHQPDSLESLNFPHLLNPSLVSRTSPRSIQQAASNAGMAIDAGIVHSTSVNSGCGDTTTYYENGADQVEPLNISVYDYLGGHDHV
[1]
  binding: binds

B2: ERF19-HA3 (protein, UniProt O80542 1-144)
chain: MDYRESTGESQSKYKGIRRRKWGKWVSEIRVPGTRDRLWLGSFSTAEGAAVAHDVAFFCLHQPDSLESLNFPHLLNPSLVSRTSPRSIQQAASNAGMAIDAGIVHSTSVNSGCGDTTTYYENGADQVEPLNISVYDYLGGHDHV
[2]
  binding: binds

B3: ERF19 fused to the activation domain (AD) of GAL4 (protein, UniProt O80542 1-144)
chain: MDYRESTGESQSKYKGIRRRKWGKWVSEIRVPGTRDRLWLGSFSTAEGAAVAHDVAFFCLHQPDSLESLNFPHLLNPSLVSRTSPRSIQQAASNAGMAIDAGIVHSTSVNSGCGDTTTYYENGADQVEPLNISVYDYLGGHDHV
[3]
  binding: binds
[4]
  binding: no binding
[5]
  binding: no binding
